# Out of some 340,000 compounds screened, about 530 (0.16%) were called active. This list was built around the results that the source calls inconclusive (neither active nor inactive); the mix of calls is not that of the screen. No stated cut-off is given here; in the data, active means activity change below about -80%; inconclusive means between about -30% and that limit; inactive means weaker than that.
# Experiment: Small Molecules that selectively kill Giardia lamblia: qHTS;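 further: parasites exposed to compound for two days anaerobically before the ATP read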
# Settings: Giardia lamblia trophozoite viability; at 7.66 µM; hits give low values
# Procedure, shortened: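 Each well holds 100 Giardia trophozoites and compound. After two days (48 hrs) at 37 deg C in anaerobic conditions, ATP is quantified by luminescence.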
# On the % scale 0 is the no-effect control and ±100 the full control effect.
row,Structure (SMILES),activity change
1,CCn1cc2nc(SCC(=O)Nc3ccc(F)cc3F)n(Cc3ccccc3)c(=O)c2n1,inconclusive: -32.6% [inhibitor]
2,CCOc1ccccc1NC(=S)Nc1ncccc1C,inactive: -2.91%
3,O=C(Nc1nc2ccccc2[nH]1)c1ccc([N+](=O)[O-])cc1,inconclusive: -48.4% [inhibitor]
4,CCCn1cc(CN2CCCC(C(=O)c3cccc(OC(C)C)c3)C2)c(C)n1 (stereo unspecified),inconclusive: -39.3% [inhibitor]
5,CN(C)c1cccc(C(=O)Nc2nnc(Cc3ccccc3)s2)c1,inactive: -11.3%
6,Cc1cccc(N2CCN(Cc3ccc([N+](=O)[O-])o3)CC2)c1C,active: -85.6%
7,O=C(NCCCN=C1NS(=O)(=O)c2ccccc21)c1ccc(S(=O)(=O)N2CCCCC2)cc1,inactive: -7.4%
8,NC1=NC(=O)/C(=C/c2ccc(Br)cc2)S1,inconclusive: -40.2% [inhibitor]
9,O=C(CN1C(=O)COc2ccc(S(=O)(=O)N3CCCC3)cc21)Nc1cccc(F)c1,inconclusive: -40.2% [inhibitor]
10,CCC1CCCCN1C(=O)CSc1nnc(-c2cccc(Cl)c2)o1 (stereo unspecified),inactive: -8.53%
11,CCN(CC(=O)Nc1ccccc1C(F)(F)F)C(=O)CCS(=O)(=O)c1ccc(Cl)cc1,inactive: -2.37%
12,CC(C)(C)C(=O)N1CCN(S(=O)(=O)c2ccc3c(c2)OCCCO3)CC1,inactive: 2.12%
13,COc1ccccc1C1OC2=C(Nc3ccc([N+](=O)[O-])cc3N2)C1=O (stereo unspecified),inconclusive: -75% [inhibitor]
14,CC1CCN(CCC(=O)Nc2ccc(F)c(F)c2)CC1,inconclusive: -31.9% [inhibitor]
15,CC(=O)Oc1cccc(N2C(=O)c3ccc(C(=O)Nc4cccnc4)cc3C2=O)c1,inconclusive: -41.5% [inhibitor]
16,CCOC(=O)c1[nH]c2cc(OC)c(OC)cc2c1NC(=O)CN(C)C1CCCCC1,inactive: 0.782%
17,CCN(CC)S(=O)(=O)c1ccc(N2CCCC2)c(NC(=O)c2ccc([N+](=O)[O-])o2)c1,active: -96.4%
18,Cc1ccnc(NC(=S)NC(=O)c2cccs2)c1,inconclusive: -79.7% [inhibitor]
19,COc1ccc(CCNS(=O)(=O)c2cccc([N+](=O)[O-])c2)cc1,inconclusive: -34.1% [inhibitor]
20,COc1ccc(OC)c(-c2nnc3n2N=C(c2ccc(OC)c(OCC4CC4)c2)CS3)c1,inactive: 39.7%
21,COc1ccc(OC)c(/C=C/C(=O)OCC(=O)N2CCCC2)c1,inconclusive: -40.6% [inhibitor]
22,Nc1ccc(-c2nc3ccc(N)cc3o2)cc1,inconclusive: -62.6% [inhibitor]
23,Cc1ccc(C(=O)Oc2cc(N)n(S(=O)(=O)c3ccc(F)cc3)n2)cc1,inactive: -9.63%
24,COc1ccc(C(=O)OCC(=O)Nc2nnc(-c3ccccc3)o2)cc1,inactive: -1.88%
25,Clc1cccc(-c2nc(-c3ccccn3)no2)c1,inconclusive: -66.6% [inhibitor]
26,Cc1ccc(-c2ccc(SCC(=O)NC3CCCCC3)nn2)cc1,inconclusive: -30.4% [inhibitor]

row,Structure (SMILES),activity change
1,CCC1CCCCN1C(=O)CSc1nc2c([nH]c3ccccc32)c(=O)n1C (stereo unspecified),inactive: -2.58%
2,Cc1c(CC(=O)N2CCN(C(=O)C3COc4ccccc4O3)CC2)c(=O)oc2cc(O)ccc12 (stereo unspecified),inactive: -11.4%
3,COc1ccc(-c2c(-c3cc(OC)c(OC)c(OC)c3)noc2C)cn1,inactive: -3.16%
4,O=C(Nc1ccc(Cl)cn1)c1ccc([N+](=O)[O-])o1,inconclusive: -64.5% [inhibitor]
5,CCOC(=O)N1CCN(C(=O)CSc2ccc(-c3cccc(OC)c3)nn2)CC1,inconclusive: -32.4% [inhibitor]
6,CCc1cc2c(=O)c(-c3ccc4c(c3)OCCO4)coc2cc1OC(=O)c1ccco1,inconclusive: -38.1% [inhibitor]
7,CN(C)CCNC(=O)COc1ccc(C23CC4CC(CC(C4)C2)C3)cc1,inconclusive: -41.6% [inhibitor]
8,Cc1ccc(C(=O)NN2C(=O)CSC2=S)cc1,inconclusive: -33.5% [inhibitor]
9,CN(C)c1ccc(C2OC(=O)C(C)(C)C(=O)C2(C)C)cc1 (stereo unspecified),inconclusive: -32.4% [inhibitor]
10,Cc1cc(=O)oc2c(C)c(OCC(=O)NCCCN3CCOCC3)ccc12,inconclusive: -34.7% [inhibitor]
11,COC(=O)c1ccc(/C=C/c2c(-c3ccsc3)sc3ccccc23)cc1,inconclusive: -45% [inhibitor]
12,COc1cccc(/C=N/N2C(=O)CSC2=S)c1O,inconclusive: -40.9% [inhibitor]
13,CC(NC(=O)c1cccc(OC2CCN(C3CCN(C)CC3)CC2)c1)c1ccccc1 (stereo unspecified),inconclusive: -37.2% [inhibitor]
14,CCNc1nc(NCC)n2c(SCC(=O)Nc3ccc(C)c(C)c3)nnc2n1,inconclusive: -31.5% [inhibitor]
15,Cc1ccc(-c2cc3ncc(C#N)c(N)n3n2)cc1,inconclusive: -42.4% [inhibitor]
16,COc1ccc(-n2c(SCC(N)=O)nnc2-c2ccc(NS(=O)(=O)c3ccc(C)cc3)cc2)cc1,inactive: -5.94%
17,Cc1ccc2cc(CCNC(=O)c3cccs3)c(=O)[nH]c2c1C,inconclusive: -32.3% [inhibitor]
18,Cc1ccc(CN(C(=O)COc2ccc(C)c(C)c2)C2CCS(=O)(=O)C2)o1 (stereo unspecified),inactive: -12.2%
19,CC(=O)Nc1sc(N/N=C\c2ccco2)nc1-c1cccs1,inactive: -4.65%
20,Cc1cccc(NC(=O)CSc2nc3c([nH]c4ccccc43)c(=O)n2C)c1,inactive: 3.87%
21,c1ccc(Nc2ccc(-n3ccnc3)nn2)cc1,inconclusive: -37% [inhibitor]
22,CCOCCN1CCN(c2c(CC)c(C)nc3cc(-c4cc(OC)cc(OC)c4)nn23)CC1,inactive: 9.58%
23,O=C(NNC(=S)Nc1ccccc1)c1ccccc1[N+](=O)[O-],inactive: -4.22%
24,CCC(=O)Nc1nc(-c2cc([N+](=O)[O-])cs2)cs1,inconclusive: -65.4% [inhibitor]
25,CCc1cc2c(-c3ccccc3)cc(=O)oc2cc1OC(C)C(=O)O (stereo unspecified),inactive: 10.5%

# — PubChem BioAssay AID540267 (National Center for Advancing Translational Sciences (NCATS), 2011)
